The supplement of paper PMC12355420
The other results are listed elsewhere or left out. Cut-off read from the data, not from the text of the source: active = 0.5 or less and inactive = the rest. Single values are uncertain, as repeats are few or missing.

Legend:
Details in all cases: 50 µM; 24 h
[1] = test system: HeLa VPS33A reporter cells; assay: relative cell viability (CellMask signal) vs DMSO (fraction of DMSO); higher = less cytotoxic;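 note: primary screen of an FDA-approved drug library in HeLa reporter cells in 96-well format, CellMask signal normalized to DMSO-treated wells set as 1, under 0.5 deemed highly cytotoxic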
[2] = test system: HeLa VPS33A R498W KI + HA-SDC1-FLAG; assay: relative GAG core protein HA-SDC1 amount per cell number vs DMSO (fraction of DMSO); higher = more SDC1 (GAG core protein);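 note: HA-SDC1 level read out by In-Cell Western staining with an anti-HA antibody against the N-terminal tag, screening FDA-approved library drugs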
[3] = test system: HeLa VPS33A KO + NLuc-VPS33A R498W; assay: relative mutant VPS33A R498W amount (NanoLuc luminescence) vs DMSO (fraction of DMSO); HeLa model of a glycosaminoglycan (GAG) storage disease; KI is knock-in and KO knock-out; SDC1 is syndecan 1; higher = higher mutant VPS33A level;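 note: screen of an FDA-approved drug library, NanoLuc luminescence read after lysing the treated cells, taken as a measure of mutant VPS33A protein stability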

Row | Structure (SMILES) | relative cell viability [1] | relative GAG core protein HA-SDC1 amount per cell number [2] | relative mutant VPS33A R498W amount [3]
1 | COc1cc(C)c(/C=C/C(C)=C/C=C/C(C)=C/C(=O)O)c(C)c1C [Acitretin] | 0.513 | active: 0.475 | 3.6
2 | CCC(CC)[C@H](NC(C)=O)[C@@H]1[C@H](O)[C@@H](C(=O)O)C[C@H]1NC(=N)N [Peramivir] | 0.734 | inactive: 0.894 | 0.345
3 | COc1nc(N)nc2c1ncn2[C@@H]1O[C@H](CO)[C@@H](O)[C@@H]1O [Nelarabine] | 1.07 | inactive: 1.15 | 1.35
